According to the supplement of paper PMC11417369:
Some of the results follow.

System: PF3D7_0420300 AP2 domain 1 (GST-tagged)
Test: gcPBM binding intensity (ln(normalized median fluorescence intensity)); higher = stronger DNA binding
Procedure, shortened: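 DNA-binding domains from P. falciparum, fused to GST and produced in E. coli, were put on an Agilent 4 × 180k double-stranded probe array for 1 h in 1× PBS holding 1% milk, 0.2 mg/ml BSA, 0.5% salmon testes DNA and 0.03% Triton X-100. Probes were primer-extended, 36 bp long and drawn from intergenic genomic regions, with negative controls included. After Alexa488 anti-GST antibody detection and a 488 nm scan, binding intensity was set as the highest Masliner-normalised natural-log median intensity across replicate spots of either probe orientation.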

Row | Sequence | gcPBM binding intensity (ln)
1 | TTTAAGAATTAACGGGGTACAATTCTTAAATATATA [XGTACX_site669] | 9.15
2 | TTTTCTTACATGAGTGTACACACTTTTTTTCAGAAA [CACACA_site70] | 9.15
3 | TTTATATAATTTTAATGTACATATATATATATAAAT [XGTACX_site4381] | 8.98
4 | TATCTATAATATTATACACACATATATGCATAATAT [CACACA_site6175] | 9.48
5 | TTCTTCACATACACTTCAAAATTTGATAAAACATTA [CACACA_negctrl_site472] | 9.08
6 | TAATAAATAAGATTCACACATATTTAAATGTTATGC [CACACA_site5275] | 9.11
7 | TTATTTGAATAATGTTTGCACTTAGAGTATTTTATA | 9.1
8 | ATATATCATAAATAAATGAAAATATTTTCTATGTGT [CACACA_negctrl_site689] | 9.28
9 | GTATATAATTTTTTTTTTTTTTTCATTCTTTTCCTT [CACACA_negctrl_site1780] | 9.28
10 | AAATATATGAAATATACACACTTCTTTGGTATTATT [CACACA_site4414] | 9.49
11 | ATGAATTGACCATATTGTACATATTTAGGACTTACC [XGTACX_site8072] | 9.18
12 | TATATATTTTTTTCAAGTACACATTACAGTTACATA [XGTACX_site2713] | 9.22
13 | ATGTTTTCTCTTTCGGTGCATTGTTTTCTATACTTT [GTGCAC_site9483] | 9.93
14 | ATTCGATGTTTTAAATGTACACAAATTGAAGGAATA [XGTACX_site409] | 9.02
15 | TTATATTTTATATTTACACACATTTATATTTATAAA [CACACA_site203] | 9.39
16 | TTTATAATTTTAAAATGTACAAGGAGGAAAAATTCT [XGTACX_site422] | 9.09
17 | TATATAAATATTCGTAGTACAATACAATTATAAGTA [XGTACX_site3068] | 9.15
18 | AATTTGTAAAATAAGGTGCGTATAAAAAATTATATT [GTGCAC_site9676] | 9.36
19 | ATAAACATCGGTAGTACACACATTCATGTACTTGAT [CACACA_site3037] | 9.58
20 | ATTTAATAAAAAAAAAAAATATTGTAGAATATGATG [GTGCAC_negctrl_site195] | 9.17
21 | CAAATGGTAAATGAAAGTACAAATTGTTTTGATTAA [XGTACX_site1536] | 9.09
22 | ATATACATATTCTTGTGTACATAAAAATTTATATAT [XGTACX_site8726] | 9.23
23 | AGAATATTTATATGATGTACTTATATATATATATAT [XGTACX_site3021] | 9.24
24 | CAGAAATATTAATGCTGTACGGAATACATATATTTT [XGTACX_site539] | 9.24
25 | ATTTTAATGGGACATGCATGGGACAAACTACAAATT [TGCATGCA_site853] | 9.44
